Tests used:
GST-EPI = GST-EPI (UniProt P04626); test: ELISA, GST-EPI coated, 293T supernatant, reference 293T-expressed ChA21
[1] = target: T1, Recombinant Human ErbB2/Fc Chimera (human, UniProt P04626 part only); test: SPR, Biacore 3000, ErbB2/Fc chimera immobilised on CM-5 chip, antibody injected
T1 construct: Bought reagent; also called 抗原Her2; R and D Systems 1129-ER; not shown: Fc part (and any linker or tag) of the bought chimera

| 相对亲和力 (EC50 of ChA21 / EC50 of the mutant) (GST-EPI) | Kd [1] | Binder |
| --- | --- | --- |
| 0.95 |  | 人源化抗体H1-1 (antibody, human IgG1) DIVLSQSPDSLAVSLGERVTLNCKSSQTLLYSNNQKNYLAWYQQKPGQSPKLLISWAFTRKSGVPDRFSGSGSGTDFTLTISSVQAEDVAVYYCQQYSNYPWTFGAGTKLELKRGGGGSGGGGSGGGGSGGGGSQVQLVQSGAEVVKPGASVKISCKASGYSFTGYFINWVKQNPGQRLEWIGHISSSYATSTYNERFKGKATLTVDTSASTAYVELSSLRSEDTAVYFCVRSGNYEEYAMDYWGQGTLVTVSSAAA[letters of human IgG1 Fc not shown] |
| 0.92 |  | 人源化抗体H1-V1 (antibody, human IgG1) DIVLTQSPDSLAVSLGERVTINCKSSQTLLYSNNQKNYLAWYQQKPGQSPKLLISWAFTRKSGVPDRFSGSGSGTDFTLTISSVQAEDVAVYYCQQYSNYPWTFGAGTKLEIKRGGGGSGGGGSGGGGSGGGGSQVQLVQSGAEVVKPGASVKISCKASGYSFTGYFINWVKQNPGQRLEWIGHISSSYATSTYNERFKGKATLTVDTSASTAYMELSSLRSEDTAVYYCVRSGNYEEYAMDYWGQGTLVTVSSAAA[letters of human IgG1 Fc not shown] |
| 0.93 |  | 人源化抗体H1-2 (antibody, human IgG1) DIVLTQSPDSLAVSLGERVTINCKSSQTLLYSNNQKNYLAWYQQKPGQSPKLLISWAFTRKSGVPDRFSGSGSGTDFTLTISSVQAEDVAVYYCQQYSNYPWTFGAGTKLEIKRGGGGSGGGGSGGGGSGGGGSQVQLVQSGAEVVKPGASVKISCKASGYSFTGYFINWVKQNPGQRLEWIGHISSSYATSTYNQKFKGKATLTVDTSASTAYMELSSLRSEDTAVYYCVRSGNYEEYAMDYWGQGTLVTVSSAAA[letters of human IgG1 Fc not shown] |
| 0.4 |  | 人源化抗体H2-1 (antibody, human IgG1) DIQLTQSPSSLSASVGDRVTITCRSSQTLLYSNNQKNYLAWYQQKPGKAPKLLISWAFTRKSGVPSRFSGSGSGTDFTLTISSLQPEDFATYYCQQYSNYPWTFGQGTKVEIKRGGGGSGGGGSGGGGSGGGGSEVQLVESGGGLVQPGGSLRLSCAASGYSFTGYFINWVRQAPGKGLEWVAHISSSYATSTYADSVKGRFTISVDTSKNTAYLQMNSLRAEDTAVYYCVRSGNYEEYAMDYWGQGTLVTVSSAAA[letters of human IgG1 Fc not shown] |
|  | 10 nM | 人源化抗体H1-2 (antibody, human IgG1, scFv-Fc format; H1-V1 with Kabat H61 E>Q and H62 R>K; the SPR used the antibody at stated concentrations; also called 人源化突变体H1-2) DIVLTQSPDSLAVSLGERVTINCKSSQTLLYSNNQKNYLAWYQQKPGQSPKLLISWAFTRKSGVPDRFSGSGSGTDFTLTISSVQAEDVAVYYCQQYSNYPWTFGAGTKLEIKRGGGGSGGGGSGGGGSGGGGSQVQLVQSGAEVVKPGASVKISCKASGYSFTGYFINWVKQNPGQRLEWIGHISSSYATSTYNQKFKGKATLTVDTSASTAYMELSSLRSEDTAVYYCVRSGNYEEYAMDYWGQGTLVTVSSAAA[human IgG1 Fc left out] |

— patent CN101928345A (USTC UNIV SCIENCE TECH CN, dated 2010)
